Data published in the supplement of paper PMC3334620.
Over roughly 33,000 sequences, “E-score (-0.5 to 0.5)” has its median near -0.036; the highest 2% begin near 0.37. The list shows a part of the results.

Biological target: T1, Yer064c (UniProt P40041)
T1 sequence: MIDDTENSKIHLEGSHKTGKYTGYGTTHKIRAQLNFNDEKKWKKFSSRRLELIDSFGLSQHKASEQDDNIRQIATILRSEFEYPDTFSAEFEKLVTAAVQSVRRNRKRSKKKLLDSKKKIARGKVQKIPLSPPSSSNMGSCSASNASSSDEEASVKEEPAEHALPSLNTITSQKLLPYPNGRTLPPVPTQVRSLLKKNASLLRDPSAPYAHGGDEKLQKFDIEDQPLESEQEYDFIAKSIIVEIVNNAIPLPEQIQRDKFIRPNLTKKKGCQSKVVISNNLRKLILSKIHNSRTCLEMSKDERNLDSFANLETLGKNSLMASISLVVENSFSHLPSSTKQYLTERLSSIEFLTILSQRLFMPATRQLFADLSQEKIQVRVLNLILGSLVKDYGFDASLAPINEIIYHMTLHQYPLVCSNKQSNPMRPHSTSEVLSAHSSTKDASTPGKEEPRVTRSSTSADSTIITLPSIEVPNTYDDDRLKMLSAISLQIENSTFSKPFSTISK
Experiment: PBM E-score (8-mer binding enrichment) (E-score (-0.5 to 0.5)); higher = stronger / more preferred TF binding; most listed sequences are background and not binding sites
Settings: protein concentration: 200 nM; construct: GST-full length
Experimental: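 Universal 'all 10-mer' protein binding microarrays (Agilent AMADID 015681) probed with GST-tagged S. cerevisiae TFs (full-length or DBD) made by in vitro transcription/translation (PURExpress), about 100-200 nM. Bound TF was detected with fluorescent anti-GST. Each ungapped 8-mer (which stands for itself and its reverse complement) is scored by the PBM enrichment score (E-score), a modified Wilcoxon-Mann-Whitney statistic from -0.5 to +0.5, computed with the Universal PBM Analysis Suite. Scale: above 0.35 generally sequence-specific binding.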

Sequence	PBM E-score
AGTGGGCG	0.0541
CGTACTAA	0.146
AATCCGAC	0.152
CAAGCGTG	-0.128
TCTATACA	0.109
GACTAAAC	0.435
CCGTCCCA	-0.189
ATGCTCGA	-0.198
ATGATAAT	0.144
GGCCTGGA	-0.325
CACAAGTC	0.107
TATAGCGA	-0.17
CTTCGCAA	-0.0175
GGGCCATA	-0.322
CTTTGACA	0.0261
CACCAGCC	-0.176
ACGGATAC	0.0529
ACCGGTAG	-0.0894
TCTCTTAA	0.147
AAACATGA	0.272
AAAGTGGC	-0.206
GATGGGTA	0.32
AGTGTCCC	-0.088
AATAATCG	0.104
GCTCATAA	0.136

Sequence	PBM E-score
ATCAGGTC	0.123
GCCTGTAA	-0.0134
ATATCTAC	0.0277
CGGTTGTC	-0.144
GCGACTAA	0.442
ATCTTCCA	0.0233
AGTTATAG	0.0154
AGCTCGAC	-0.0488
CCCAGGCC	-0.233
ATTACCTA	0.0232
ATATAGCC	0.00163
CGGGTAGC	-0.00885
ACGTTTGA	0.0754
GCCAGAAC	-0.0316
CTTGGCAC	0.0718
CTTGGCCA	-0.0768
AGGAAGAA	-0.174
AGCTTTAC	-0.167
CGTTGACA	-0.104
ACGGGGAC	-0.041
GAAAGAAC	-0.0932
CAGAGACG	-0.0947
AGTGAGAG	-0.0545
GCCCAGCA	-0.22
ACCGCGGA	-0.112

Sequence	PBM E-score
AGATAACC	-0.163
ACTACCAA	0.185
CCCGCTCA	-0.162
ATGGCCGG	-0.139
AGAAGGAG	-0.217
AACGCCAA	-0.123
GAGTGATA	0.171
GACTGGCA	-0.0577
CAATTGGG	-0.23
AGCAATCG	0.046
CTGGGCGC	-0.189
AGGATTGA	0.186
AGAACCAA	-0.034
ACCCAATC	0.147
CATTGTTA	0.0828
CTCTCTGA	0.163
CTAACCGA	0.171
CATTATGG	0.0554
CGCATGGA	-0.0991
CCTTCGCG	0.0306
ATCTTGTC	-0.0414
CATTCCAG	-0.0873
GGAACCCA	0.0605
AGTGTGGC	-0.147
ATGTGGCC	-0.207

Sequence	PBM E-score
GATCGAGA	-0.00399
CAAAACCG	0.00174
AAGCGAGG	-0.239
CGGAATGA	0.149
AGACAGAG	-0.123
ATGCAGCC	-0.0746
CGACACAC	0.0958
ATTGGTTC	0.102
ATTGCGCA	-0.0491
ATACGGTC	-0.241
GGACTCGA	0.118
TACCACGA	0.018
CGAAGCTC	-0.111
ACACCACC	-0.0428
GGCTTCTA	-0.281
ATTCTGTG	0.0508
GCCATTCC	-0.0133
TAACATAA	0.149
GACCGCTA	-0.124
GAATGCTA	-0.277
GGTATAAA	-0.132
CCTTCATC	-0.17
CGGCAACC	-0.197
AGGGAAAT	-0.0315
CAGTCTAC	0.0229

Sequence	PBM E-score
ACTACTTC	0.149
TGCTCTAA	-0.0473
GATATATA	0.0368
CGCTATGC	-0.24
AGGCGCAG	-0.254
ATGTTGCA	-0.0827
AAAGGTCA	-0.00741
GTGCCACA	-0.121
AGCGACGA	0.123
TACCATAA	-0.112
GGGACGAC	-0.02
TACAATAA	0.0752
ATTGTCAC	-0.0262
GCCCAATA	-0.302
AGAGACCG	-0.32
CCTAACCA	0.0425
TCACCAGA	-0.0218
GGGTAGCA	-0.0568
GGTCGTTA	0.00527
CCCCGCTA	-0.209
CACTGCCC	-0.133
AGGCGGCG	-0.194
CATCCGAA	0.123
CGGCCGTC	-0.158
AAAGCGGA	-0.211

Sequence	PBM E-score
GCCGTATA	-0.214
CATGGAGC	-0.0739
CTTGGAGC	-0.0819
GCACCTCC	-0.349
CGTTAAAA	-0.172
ACTATCCC	-0.0141
CGGGTAAG	0.0805
GGAACACA	0.0976
ACCCCCGG	-0.29
AAGAGCGC	0.0664
AGATGCGC	-0.344
GATTGCAA	0.204
ACAGTAGC	0.0569
CTGAGAGC	-0.184
AGAGGTCC	-0.279
ACTATAAC	0.0588
CGAACTAC	0.0577
ACGTAGAC	-0.204
GCCGACGA	0.062
CGATTCGC	0.0811
CCAAGAAG	-0.0914
CCGCATAA	0.0975
CTTTCGTC	-0.0537
AAATCTTA	0.107
CTGACATA	0.0187

Sequence	PBM E-score
ACTATTCG	0.051
CGGCACTA	-0.141
ACCGAGCC	0.0308
TACTAGGA	0.0896
CCAATCGG	-0.107
AGGACACT	-0.282
GGCGCACA	-0.314
GACGAGAA	0.143
AGAAAAGC	-0.216
TAATATCA	0.0745
CGTAAAGC	-0.152
CTCATCCA	0.186
TTGGGAAA	-0.0471
ATCTTACA	0.0469
CCCGGTAG	-0.033
CGGGTTAC	-0.224
ACTTTGCT	-0.0619
GCGGATTA	0.0222
TAAGGTAA	0.0427
GCTGCAGC	-0.329
ATCATTCA	0.268
AACGGATC	-0.0289
